Measurements published in PubChem BioAssay AID588501 (NMMLSC, 2011).
Screen size: about 360,000 compounds; about 420 (0.12%) were called active. This list was built around the results that the source calls inconclusive (neither active nor inactive); the mix of calls is not that of the screen. No stated cut-off is given here; in the data, active means inhibition above about 30%; inconclusive means no clear call, values can overlap the other calls; inactive means below that.

Target: Lethal factor (Bacillus anthracis) (UniProt P15917)
Assay: anthrax lethal factor cleavage blockers – biochemical, multiplex microsphere, MLPCN library, primary screen (AID 588501); further: plate controls were buffer without enzyme for full effect and enzyme alone for no effect
Conditions: multiplex microsphere protease cleavage assay, LF; at 10 µM; active compounds read high

`COc1ccc(N2CCn3c2nc2c3c(=O)n(CCCc3ccccc3)c(=O)n2C)c(OC)c1` was tested. Which inhibition did it give?
Its inhibition is inconclusive: -152%.

With `N=c1cc(C2(O)CCCCC2)n2c(nc3ccccc32)s1` as the compound, how does the inhibition read?
Its inhibition is inconclusive: -7.2%.

Which inhibition does the source give for `COc1ccc(C(=O)COC(=O)C(CC(C)C)N2C(=O)c3ccccc3C2=O)cc1` (centres undefined) here?
The inhibition was inconclusive: -14.5%.

`COc1ccccc1C(=O)COC(=O)CCNS(=O)(=O)c1ccc(C)c(C)c1` was tested. Which inhibition did it give?
Its inhibition is inconclusive: -21.2%.

`CCCCn1c(N)c(N(CC(C)C)C(=O)c2cc(=O)[nH]c3ccccc23)c(=O)[nH]c1=O` was tested. Which inhibition did it give?
The inhibition was inconclusive: 4.9%.

How did the inhibition turn out when `COc1ccc(S(=O)(=O)N2CCC(C(=O)NCCC(=O)Nc3ccc(Cl)cc3)CC2)cc1` was run?
The inhibition was inactive: -2.2%.

How did the inhibition turn out when `CNc1nc(-c2c(C)n(C)c3ccc(OC)cc23)cs1` was run?
Its inhibition is inconclusive: 12.4%.

For `O=C(Nc1ccc(C(F)(F)F)cc1)N1CCN(c2ccnc3cc(Cl)ccc23)CC1`, which inhibition is on record?
Its inhibition is inconclusive: -15.4%.

How did the inhibition turn out when `O=[N+]([O-])c1ccc(Cl)c(/C=N/n2c(-c3ccncc3)n[nH]c2=S)c1` was run?
Its inhibition is active: 37.4%.

For `Cc1ccc(NC(=O)CSCC(=O)Nc2nnc(C)s2)cc1`, which inhibition is on record?
The inhibition was inconclusive: -3.1%.

`O=C(CCCOc1ccccc1)N1CCN(S(=O)(=O)c2cccc(F)c2)CC1` was tested. Which inhibition did it give?
Its inhibition is inconclusive: -3.2%.

For `COc1ccc(OC)c(Nc2nc(NCCCN(C)C)nc(N)c2[N+](=O)[O-])c1`, which inhibition is on record?
The inhibition was active: 31%.

`N#Cc1ccc(C(=O)Nc2cc(S(=O)(=O)N3CCOCC3)ccc2N2CCCC2)cc1` was tested. Which inhibition did it give?
Its inhibition is inconclusive: -8.6%.

`COc1ccc(Nc2nc(-c3c[nH]c4ccccc34)cs2)cc1` was tested. Which inhibition did it give?
The inhibition was inconclusive: -7.2%.

`CCOc1cc(C(=O)NCCN2C(=O)S/C(=C\c3cccnc3)C2=O)cc(OCC)c1OCC` was tested. Which inhibition did it give?
Its inhibition is inactive: -1.4%.

How did the inhibition turn out when `O=C(c1ccccc1)N1N=C(C(F)(F)F)CC1(O)c1ccccc1` (centres undefined) was run?
Its inhibition is active: 38.5%.

Which inhibition does the source give for `CN(C)/C=C/C(=O)c1ccc(Cl)cc1` here?
The inhibition was inconclusive: -7%.

How did the inhibition turn out when `Cc1ccc(NC(=O)CN2CCN(C)CC2)cc1S(=O)(=O)N1CCOCC1` was run?
The inhibition was inconclusive: 6.8%.

Which inhibition does the source give for `c1ccc(-c2nnc(CSc3nncs3)o2)cc1` here?
The inhibition was inconclusive: 9.1%.

With `Cn1c(=O)c(NCCc2ccccc2)c2c3c(cccc31)C(=O)c1ccccc1-2` as the compound, how does the inhibition read?
The inhibition was active: 47%.

`CCOc1cc(/C=N/N=C(\N)c2nonc2N)cc(Br)c1OCc1cccc2ccccc12` was tested. Which inhibition did it give?
The inhibition was inactive: 0.5%.

With `CCN(C(=O)COC(=O)[C@H](C)N=C1NS(=O)(=O)c2ccccc21)C1CCS(=O)(=O)C1` (some centres undefined) as the compound, how does the inhibition read?
The inhibition was inconclusive: 5.8%.

How did the inhibition turn out when `C(=N\Nc1ccccn1)/c1c[nH]c2ccccc12` was run?
Its inhibition is inconclusive: -6.3%.

How did the inhibition turn out when `Clc1ccc(OCc2nnc(SCCN3CCCCC3)n2Cc2ccco2)cc1` was run?
The inhibition was inconclusive: -16%.

Which inhibition does the source give for `CCOC(=O)COn1c(SCC(=O)OCC)nc2ccccc2c1=O` here?
The inhibition was inconclusive: -16.8%.

How did the inhibition turn out when `CC1Cc2ccccc2N1C(=O)CSc1nnc(-c2ccccc2)c(-c2ccccc2)n1` (centres undefined) was run?
Its inhibition is inconclusive: 4.4%.

For `Cc1ccc(NC(=O)Nc2nnc(-c3ccncc3)s2)cc1C`, which inhibition is on record?
The inhibition was inactive: -2.4%.

`COC(=O)c1cc(S(=O)(=O)C(C)C)c(S(C)=O)s1` (centres undefined) was tested. Which inhibition did it give?
Its inhibition is inconclusive: 10.2%.

Which inhibition does the source give for `COCC(=O)NCc1ccc2c(c1)OCO2` here?
The inhibition was inactive: 1.2%.

`Cc1noc(C)c1CSCC(=O)NCCN1C(=O)S/C(=C\c2ccccc2F)C1=O` was tested. Which inhibition did it give?
The inhibition was inactive: -4.3%.

Which inhibition does the source give for `O=C(N/N=C/C=C/c1ccccc1[N+](=O)[O-])c1ccncc1` here?
The inhibition was inconclusive: -4.1%.

With `O=C(C1CC(c2cccc(Br)c2)=NO1)N1CCc2ccccc2C1` (centres undefined) as the compound, how does the inhibition read?
Its inhibition is inconclusive: -1.7%.

Which inhibition does the source give for `CCCCN(C(=O)c1cccc(-n2cccc2)c1)c1c(N)n(Cc2ccccc2)c(=O)[nH]c1=O` here?
Its inhibition is inconclusive: -3.1%.

For `CC(C)NC(=O)NNc1c(Cl)cncc1Cl`, which inhibition is on record?
The inhibition was inconclusive: -7.4%.

With `CCc1nc2ccccc2n1Cc1ccccc1OC` as the compound, how does the inhibition read?
The inhibition was inactive: -3.1%.

With `CCN(CC(=O)Nc1ccc(NC(C)=O)cc1)C(=O)c1cc(C)on1` as the compound, how does the inhibition read?
Its inhibition is inconclusive: -2.7%.

`COCCCNC(=O)CSc1nc2ccc(N3CCOCC3)cc2c(=O)n1CCc1ccccc1` was tested. Which inhibition did it give?
Its inhibition is inconclusive: 3.9%.

`Cc1cc(C)n(C(=O)c2ccc(C)c(S(=O)(=O)N3CCCCC3)c2)n1` was tested. Which inhibition did it give?
Its inhibition is inactive: -0.4%.

`COC(=O)c1sc2cc(C(F)(F)F)cnc2c1-c1cccnc1` was tested. Which inhibition did it give?
The inhibition was inconclusive: -8.7%.

`Cc1cc(C)n(CC(C)NCc2cn[nH]c2-c2ccc(C)c(C)c2)n1` (centres undefined) was tested. Which inhibition did it give?
The inhibition was inactive: -4.4%.

With `Cc1ccsc1/C=C/c1ccc2cccc(O)c2n1` as the compound, how does the inhibition read?
The inhibition was inactive: -10.5%.

How did the inhibition turn out when `CCOc1ccc(CCNC(=O)Cn2c(=O)c3cccn3c3cccnc32)cc1` was run?
Its inhibition is inactive: 4%.

With `O=C(Nc1ccc2c(c1)OCO2)c1cc2n(n1)C(C(F)(F)F)CC(c1ccccc1)N2` (centres undefined) as the compound, how does the inhibition read?
The inhibition was inconclusive: -9.5%.

Which inhibition does the source give for `O=C(COC(=O)Cc1ccccc1)Nc1ncc(Cl)cc1Cl` here?
The inhibition was inactive: -0.3%.

How did the inhibition turn out when `COc1ccc(C2=NOC(COc3ccc4c(C)cc(=O)oc4c3)C2)c(OC)c1` (centres undefined) was run?
The inhibition was inconclusive: -10.5%.

How did the inhibition turn out when `CCN(Cc1ccccc1)C(c1cc2ccc(C)cc2[nH]c1=O)c1nnnn1CCOC` (centres undefined) was run?
Its inhibition is inconclusive: -152%.

How did the inhibition turn out when `CS(=O)(=O)c1ccc(NC(=O)CCCc2nc3ccccc3c(=O)[nH]2)cc1` was run?
The inhibition was inconclusive: 3%.

How did the inhibition turn out when `COCCN(CCOC)C(=O)Nc1ccc(Cl)cc1` was run?
Its inhibition is inactive: -0.9%.

For `N#C/C(=C\c1ccc[nH]1)S(=O)(=O)c1ccccc1`, which inhibition is on record?
Its inhibition is inactive: -2.5%.

How did the inhibition turn out when `Cc1ccccc1OCCCN1CCCC1` was run?
Its inhibition is inactive: -20.8%.

For `COc1ccc(-n2c(O)c(C(C)=NCc3ccco3)c(=O)[nH]c2=O)cc1`, which inhibition is on record?
Its inhibition is inconclusive: 19.3%.

How did the inhibition turn out when `O=C(NCC(=O)N1CCCC(C(F)(F)F)C1)c1ccccc1Br` (centres undefined) was run?
Its inhibition is inconclusive: 0.4%.

`O=C(C1CCCN(Cc2ccccc2F)C1)N1CCc2ccccc2C1` (centres undefined) was tested. Which inhibition did it give?
The inhibition was inconclusive: -9.9%.

For `CC1(c2ccccc2)NC(=O)N(CC(=O)Nc2cccc(/C=C/c3ccccn3)c2)C1=O` (centres undefined), which inhibition is on record?
Its inhibition is inconclusive: 3%.

For `O=P(Nc1cccnc1)(Oc1ccccc1Cl)Oc1ccccc1Cl`, which inhibition is on record?
Its inhibition is active: 30.5%.

Which inhibition does the source give for `COc1ccc2c(c1)CCC1C2=NN(/C(C)=C\C(C)=O)C1c1ccc(F)cc1` (centres undefined) here?
Its inhibition is inconclusive: 12.4%.

With `O=C(NC1CCSc2ccccc21)c1cc(S(=O)(=O)N2CCOCC2)ccc1Cl` (centres undefined) as the compound, how does the inhibition read?
The inhibition was inconclusive: -5.6%.

`CC(=O)c1cccc(NS(=O)(=O)N2CCOCC2)c1` was tested. Which inhibition did it give?
Its inhibition is inconclusive: 3.7%.

For `CCc1ccc(OC(=O)c2cccnc2)cc1`, which inhibition is on record?
The inhibition was active: 36.6%.

How did the inhibition turn out when `CC1(C)CC(=O)C=C(NNC(=O)c2cccnc2)C1` was run?
The inhibition was inconclusive: -12.8%.

`O=[N+]([O-])c1cccc(-c2cn3nc(-c4ccccc4)c(-c4ccccc4)nc3n2)c1` was tested. Which inhibition did it give?
The inhibition was active: 33.3%.

`CCn1c(SCC(=O)c2ccc3ccccc3c2)nnc1-c1ccco1` was tested. Which inhibition did it give?
Its inhibition is inconclusive: -17.5%.

Which inhibition does the source give for `CC1CCCC(NC(=O)CN2C(=O)NC(C)(c3ccccc3)C2=O)C1C` (centres undefined) here?
The inhibition was inconclusive: 1.5%.

How did the inhibition turn out when `C=CCn1c(O)c(C(C)=NCC2CCCO2)c(=O)[nH]c1=O` (centres undefined) was run?
Its inhibition is inconclusive: 25.8%.

Which inhibition does the source give for `COc1ccc2c(c1)c(=O)oc1cc3occ(C(C)(C)C)c3cc12` here?
Its inhibition is inconclusive: -13.4%.

For `COc1ccc2nc3cc(Cl)ccc3c(Nc3ccc(O)c(CN4CCN(C)CC4)c3)c2c1`, which inhibition is on record?
The inhibition was inactive: -24%.

`Cc1cccc(-c2nc(CN3CCCC(C(=O)NC4CCCC4)C3)c(C)o2)c1` (centres undefined) was tested. Which inhibition did it give?
The inhibition was inconclusive: -0.3%.

How did the inhibition turn out when `CCOC(=O)c1cn(CC(=O)Nc2ccc(C)cc2)nn1` was run?
Its inhibition is inconclusive: -11.2%.

For `CCCCn1c(N)c(N(CCOC)C(=O)c2cnc(C)cn2)c(=O)[nH]c1=O`, which inhibition is on record?
Its inhibition is inconclusive: -2.2%.

For `COCc1ccccc1C1=CC(=O)C[C@H](c2ccc(F)cc2)C1`, which inhibition is on record?
The inhibition was inactive: -3.1%.

How did the inhibition turn out when `CC(C)c1ccc(OCC(=O)NC(=S)Nc2ccc3c4c(cccc24)CC3)cc1` was run?
The inhibition was inconclusive: 16.6%.

How did the inhibition turn out when `CC(C)Nc1nc(Oc2ccc(Cl)cc2Cl)cc(C(F)(F)F)n1` was run?
The inhibition was inconclusive: -28.6%.

`COC(=O)c1c(C(=O)OC)c2c(-c3ccccc3)cc3cccc1n32` was tested. Which inhibition did it give?
Its inhibition is active: 36.7%.

`Cc1cc(C)nc(N2C(=O)CC(Cc3ccccc3)C2=O)n1` (centres undefined) was tested. Which inhibition did it give?
The inhibition was inconclusive: 2.2%.

How did the inhibition turn out when `Cc1ccc(-c2nnc(NC(=O)c3ccc([N+](=O)[O-])o3)o2)c(C)c1` was run?
Its inhibition is inconclusive: -0.4%.

For `COC(=O)c1csc2c(C(F)(F)F)cc(N3CCN(C(=O)Nc4ccccc4)CC3)nc12`, which inhibition is on record?
Its inhibition is inactive: -0.2%.

With `O=C(CN1C(=O)c2ccc([N+](=O)[O-])cc2C1=O)NCCC1=CCCCC1` as the compound, how does the inhibition read?
Its inhibition is inconclusive: -27.7%.

Which inhibition does the source give for `COc1ccc(CN(C)C(=O)c2ccc3c(=O)n4c(nc3c2)CCC4)c(OC)c1` here?
The inhibition was inconclusive: -0.2%.

How did the inhibition turn out when `S=c1[nH]nc(-c2ccncc2)n1/N=C/c1ccccc1Cl` was run?
Its inhibition is inconclusive: 8.3%.

Which inhibition does the source give for `CC1CCN(CCc2nc3cc(NC(=O)Nc4ccccc4)ccc3n2C)CC1` here?
Its inhibition is inconclusive: -23.2%.

With `COc1cc2c(cc1/C=C/C(=O)O)OC(C)C2` (centres undefined) as the compound, how does the inhibition read?
The inhibition was inactive: -2.1%.

With `Cc1nc(-c2ccc(F)cc2)c(CC(=O)N2CCN(S(=O)(=O)c3ccc(F)cc3)CC2)s1` as the compound, how does the inhibition read?
The inhibition was inconclusive: -1.8%.

How did the inhibition turn out when `O=C(NCCc1ccc(C(F)(F)F)cc1)c1ccc(Cl)nc1` was run?
Its inhibition is inactive: -7.9%.

With `COc1ccc(OC)c(/C=N/NC(=O)Cn2ccnc2C)c1` as the compound, how does the inhibition read?
Its inhibition is inactive: -6.5%.

`CCOC(=O)c1c(NC(C)=O)sc2c1CCC(C=NCCCN(CC)CC)=C2Sc1ccccc1` was tested. Which inhibition did it give?
Its inhibition is active: 30.9%.

`CSc1ncccc1C(=O)OC(C)C(=O)Nc1ccc2c(c1)OCCO2` (centres undefined) was tested. Which inhibition did it give?
Its inhibition is inactive: -5.1%.

`CCCOc1ccc(NCC(=O)Nc2ccc(C)cc2C)cc1` was tested. Which inhibition did it give?
The inhibition was inconclusive: -172%.

Which inhibition does the source give for `Cc1ccc(C(=O)OCC(=O)N(Cc2ccccc2)C(C)C)cc1C` here?
Its inhibition is inactive: -2.8%.

Which inhibition does the source give for `Cn1ccnc1SCC(=O)c1c(N)n(C)c(=O)n(C)c1=O` here?
The inhibition was inactive: -4.6%.
